Results: the supplement of paper PMC8728848
Some of the results follow.

Experiments:
Experiment in all cases: glycan array binding signal (z-score within array); higher = stronger binding
Settings in all cases: glycan notation: IUPAC condensed, linker removed
[1] = biological target: Fuc(a1-2)Gal(b1-4)[Fuc(a1-3)]GlcNAc
Summary of the method: (§1)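 The Consortium for Functional Glycomics database supplied 3228 glycan arrays, of which those lacking an available protein sequence were dropped. The binding signal, a within-array Z-score, was averaged across arrays of the same protein sequence and across linkers. Negative scores can be read as non-binding.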

[2] = biological target: Fuc(a1-2)Gal(b1-4)[Fuc(a1-3)]GlcNAc(b1-2)Man(a1-3)[Fuc(a1-2)Gal(b1-4)[Fuc(a1-3)]GlcNAc(b1-2)Man(a1-6)]Man(b1-4)GlcNAc(b1-4)[Fuc(a1-6)]GlcNAc
Summary of the method: as §1

[3] = biological target: Fuc(a1-2)Gal(b1-4)[Fuc(a1-3)]GlcNAc(b1-2)[Fuc(a1-2)Gal(b1-4)[Fuc(a1-3)]GlcNAc(b1-4)]Man(a1-3)[Fuc(a1-2)Gal(b1-4)[Fuc(a1-3)]GlcNAc(b1-2)Man(a1-6)]Man(b1-4)GlcNAc(b1-4)GlcNAc
Summary of the method: as §1

[4] = biological target: Fuc(a1-2)Gal(b1-4)[Fuc(a1-3)]GlcNAc(b1-3)Gal(b1-4)[Fuc(a1-3)]GlcNAc
Summary of the method: as §1

[5] = biological target: Fuc(a1-2)Gal(b1-4)[Fuc(a1-3)]GlcNAc(b1-3)Gal(b1-4)[Fuc(a1-3)]GlcNAc(b1-3)Gal(b1-4)[Fuc(a1-3)]GlcNAc
Summary of the method: as §1

[6] = biological target: Fuc(a1-2)Gal(b1-4)[Fuc(a1-3)]GlcNAc(b1-3)GalNAc
Summary of the method: as §1

[7] = biological target: Fuc(a1-2)Gal(b1-4)[Fuc(a1-3)]GlcNAc(b1-3)[Neu5Ac(a2-6)Gal(b1-4)GlcNAc(b1-6)]Gal(b1-4)Glc
Summary of the method: as §1

[8] = biological target: Fuc(a1-2)Gal3S(b1-4)GlcNAc
Summary of the method: as §1

[9] = biological target: Fuc(a1-2)Gal6S(b1-3)GlcNAc
Summary of the method: as §1

[10] = biological target: Fuc(a1-2)Gal6S(b1-3)GlcNAc6S
Summary of the method: as §1

[11] = biological target: Fuc(a1-2)Gal6S(b1-4)Glc
Summary of the method: as §1

[12] = biological target: Fuc(a1-2)Gal6S(b1-4)Glc6S
Summary of the method: as §1

[13] = biological target: Fuc(a1-2)[Gal(a1-3)]Gal
Summary of the method: as §1

[14] = biological target: Fuc(a1-2)[Gal(a1-3)]Gal(b1-3)GalNAc
Summary of the method: as §1

[15] = biological target: Fuc(a1-2)[Gal(a1-3)]Gal(b1-3)GalNAc(b1-3)Gal(a1-4)Gal(b1-4)Glc
Summary of the method: as §1

[16] = biological target: Fuc(a1-2)[Gal(a1-3)]Gal(b1-3)GlcNAc
Summary of the method: as §1

[17] = biological target: Fuc(a1-2)[Gal(a1-3)]Gal(b1-3)GlcNAc(b1-2)Man(a1-3)[Fuc(a1-2)[Gal(a1-3)]Gal(b1-3)GlcNAc(b1-2)Man(a1-6)]Man(b1-4)GlcNAc(b1-4)GlcNAc
Summary of the method: as §1

[18] = biological target: Fuc(a1-2)[Gal(a1-3)]Gal(b1-3)GlcNAc(b1-2)Man(a1-3)[Fuc(a1-2)[Gal(a1-3)]Gal(b1-3)GlcNAc(b1-2)Man(a1-6)]Man(b1-4)GlcNAc(b1-4)[Fuc(a1-6)]GlcNAc
Summary of the method: as §1

[19] = biological target: Fuc(a1-2)[Gal(a1-3)]Gal(b1-3)GlcNAc(b1-3)GalNAc
Summary of the method: as §1

[20] = biological target: Fuc(a1-2)[Gal(a1-3)]Gal(b1-3)GlcNAc(b1-6)GalNAc
Summary of the method: as §1

[21] = biological target: Fuc(a1-2)[Gal(a1-3)]Gal(b1-4)Glc
Summary of the method: as §1

[22] = biological target: Fuc(a1-2)[Gal(a1-3)]Gal(b1-4)GlcNAc
Summary of the method: as §1

[23] = biological target: Fuc(a1-2)[Gal(a1-3)]Gal(b1-4)GlcNAc(b1-2)Man
Summary of the method: as §1

[24] = biological target: Fuc(a1-2)[Gal(a1-3)]Gal(b1-4)GlcNAc(b1-2)Man(a1-3)[Fuc(a1-2)[Gal(a1-3)]Gal(b1-4)GlcNAc(b1-2)Man(a1-6)]Man(b1-4)GlcNAc(b1-4)GlcNAc
Summary of the method: as §1

[25] = biological target: Fuc(a1-2)[Gal(a1-3)]Gal(b1-4)GlcNAc(b1-2)Man(a1-3)[Fuc(a1-2)[Gal(a1-3)]Gal(b1-4)GlcNAc(b1-2)Man(a1-6)]Man(b1-4)GlcNAc(b1-4)[Fuc(a1-6)]GlcNAc
Summary of the method: as §1

[26] = biological target: Fuc(a1-2)[Gal(a1-3)]Gal(b1-4)GlcNAc(b1-3)GalNAc
Summary of the method: as §1

[27] = biological target: Fuc(a1-2)[Gal(a1-3)]Gal(b1-4)GlcNAc(b1-3)[Fuc(a1-2)[Gal(a1-3)]Gal(b1-4)GlcNAc(b1-6)]GalNAc
Summary of the method: as §1

[28] = biological target: Fuc(a1-2)[Gal(a1-3)]Gal(b1-4)GlcNAc(b1-6)GalNAc
Summary of the method: as §1

[29] = biological target: Fuc(a1-2)[Gal(a1-3)]Gal(b1-4)[Fuc(a1-3)]Glc
Summary of the method: as §1

[30] = biological target: Fuc(a1-2)[Gal(a1-3)]Gal(b1-4)[Fuc(a1-3)]GlcNAc
Summary of the method: as §1

[31] = biological target: Fuc(a1-2)[Gal(a1-3)]Gal(b1-4)[Fuc(a1-3)]GlcNAc(b1-3)GalNAc
Summary of the method: as §1

[32] = biological target: Fuc(a1-2)[Gal(a1-4)]Gal(b1-4)GlcNAc
Summary of the method: as §1

[33] = biological target: Fuc(a1-2)[GalNAc(a1-3)]Gal
Summary of the method: as §1

[34] = biological target: Fuc(a1-2)[GalNAc(a1-3)]Gal(b1-3)GalNAc(a1-3)[Fuc(a1-2)]Gal(b1-4)GlcNAc
Summary of the method: as §1

[35] = biological target: Fuc(a1-2)[GalNAc(a1-3)]Gal(b1-3)GalNAc(b1-3)Gal(a1-4)Gal(b1-4)Glc
Summary of the method: as §1

[36] = biological target: Fuc(a1-2)[GalNAc(a1-3)]Gal(b1-3)GlcNAc
Summary of the method: as §1

[37] = biological target: Fuc(a1-2)[GalNAc(a1-3)]Gal(b1-3)GlcNAc(b1-2)Man(a1-3)[Fuc(a1-2)[GalNAc(a1-3)]Gal(b1-3)GlcNAc(b1-2)Man(a1-6)]Man(b1-4)GlcNAc(b1-4)GlcNAc
Summary of the method: as §1

[38] = biological target: Fuc(a1-2)[GalNAc(a1-3)]Gal(b1-3)GlcNAc(b1-2)Man(a1-3)[Fuc(a1-2)[GalNAc(a1-3)]Gal(b1-3)GlcNAc(b1-2)Man(a1-6)]Man(b1-4)GlcNAc(b1-4)[Fuc(a1-6)]GlcNAc
Summary of the method: as §1

B1: Gal-9-hFc (Mus musculus), O08573-2 (protein)
chain: MALFSAQSPYINPIIPFTGPIQGGLQEGLQVTLQGTTKSFAQRFVVNFQNSFNGNDIAFHFNPRFEEGGYVVCNTKQNGQWGPEERKMQMPFQKGMPFELCFLVQRSEFKVMVNKKFFVQYQHRVPYHLVDTIAVSGCLKLSFITFQTQNFRPAHQAPMAQTTIHMVHSTPGQMFSTPGIPPVVYPTPAYTIPFYTPIPNGLYPSKSIMISGNVLPDATRFHINLRCGGDIAFHLNPRFNENAVVRNTQINNSWGQEERSLLGRMPFSRGQSFSVWIICEGHCFKVAVNGQHMCEYYHRLKNLQDINTLEVAGDIQLTHVQT
[1]
  glycan array binding signal (z-score): -0.423
[2]
  glycan array binding signal (z-score): -0.315
[3]
  glycan array binding signal (z-score): 0.524
[4]
  glycan array binding signal (z-score): -0.331
[5]
  glycan array binding signal (z-score): -0.31
[6]
  glycan array binding signal (z-score): -0.035
[7]
  glycan array binding signal (z-score): -0.438
[8]
  glycan array binding signal (z-score): -0.539
[9]
  glycan array binding signal (z-score): -0.507
[10]
  glycan array binding signal (z-score): 0.395
[11]
  glycan array binding signal (z-score): -0.252
[12]
  glycan array binding signal (z-score): -0.203
[13]
  glycan array binding signal (z-score): -0.296
[14]
  glycan array binding signal (z-score): -0.407
[15]
  glycan array binding signal (z-score): -0.365
[16]
  glycan array binding signal (z-score): -0.095
[17]
  glycan array binding signal (z-score): -0.254
[18]
  glycan array binding signal (z-score): 0.185
[19]
  glycan array binding signal (z-score): -0.154
[20]
  glycan array binding signal (z-score): -0.057
[21]
  glycan array binding signal (z-score): 0.289
[22]
  glycan array binding signal (z-score): -0.025
[23]
  glycan array binding signal (z-score): 0.292
[24]
  glycan array binding signal (z-score): 1.3
[25]
  glycan array binding signal (z-score): 0.446
[26]
  glycan array binding signal (z-score): -0.153
[27]
  glycan array binding signal (z-score): 4.4
[28]
  glycan array binding signal (z-score): 0.473
[29]
  glycan array binding signal (z-score): -0.453
[30]
  glycan array binding signal (z-score): -0.369
[31]
  glycan array binding signal (z-score): -0.287
[32]
  glycan array binding signal (z-score): -0.371
[33]
  glycan array binding signal (z-score): -0.468
[34]
  glycan array binding signal (z-score): -0.226
[35]
  glycan array binding signal (z-score): -0.329
[36]
  glycan array binding signal (z-score): -0.105
[37]
  glycan array binding signal (z-score): -0.434
[38]
  glycan array binding signal (z-score): -0.214
